The results in this text go back to publication PMC5515408.

This is one part of the list. At the low end of the ranking the order means little.

The test system of the assay is MYC (p64) + MAX (p21), in MYC:MAX. Description: protein-binding microarray (anti-MAX antibody). To be noted: PBM: 15 mM Tris-HCl pH 7.5, 100 mM KCl, 0.075% NP40, 7.5 mM beta-mercaptoethanol, 375 ng/ul BSA, 8 ng/ul poly(dA-dT):(dA-dT), 550 ng complex, 60 min, room …; high values mean tight binding; double strand, one strand shown; sequences stand for … in CCGGC…TTAATAGCTAAGATTACTATATCGACG
For TGACACTATGTA, the binding signal (log2 normalized fluorescence) came out at 0.213.
In the case of TGATCCGAAGTA it was -0.239.
With TGAGCTATCGTA, the binding signal (log2 normalized fluorescence) is -0.142.
On to TGATAGTAAGTA, for which the binding signal (log2 normalized fluorescence) was -0.14.
TGATTTACTGTA: the binding signal (log2 normalized fluorescence) was -0.069.
On to TGACAAAGGGTA, for which the binding signal (log2 normalized fluorescence) amounted to 0.108.
In the case of TGAAACGCGGTA it was 0.467; in that of TGACACGAGGCA, 0.549.
Consider TGAAATTCAGTA, for which the binding signal (log2 normalized fluorescence) was -0.0395.
To TGACTCTTAGTA belongs -0.0432.
To TTACACGGGGTA belongs 0.512; to TGAACAGATGTA, 0.206.
To CACACCGTATAT belongs 0.472; to TGAAAAAGAGTA, -0.065; to TGAGGAGGAGTA, -0.0112.
Turning to TGAACCCCTGTA, the binding signal (log2 normalized fluorescence) worked out at 0.199.
As to TGATGTTAGGTA, the binding signal (log2 normalized fluorescence) is 0.122.
As for ATGCACGTGGTA, the binding signal (log2 normalized fluorescence) was 0.877.
To GGACACATGGTA belongs 0.734.
In the case of TGACAACTCGTA it was 0.0809.
Consider TGAATAAGAGTA, for which the binding signal (log2 normalized fluorescence) was -0.102.
For TGGCCCGTGATA, the binding signal (log2 normalized fluorescence) came out at 0.0203.
To TGACCTATAGTA belongs 0.0626; to TGACGTAGAGTA, -0.111.
Turning to TGAGACACGGTA, the binding signal (log2 normalized fluorescence) stood at 0.339.
To TGAGGGCACGTA belongs 0.196; to TGAATATAGGTA, -0.0789.
On to TTAAACCGGGTT, for which the binding signal (log2 normalized fluorescence) stood at 0.0388.
In the case of TGATGCTACGTA it was 0.0122; in that of ATAGTATACAAT, 0.141; in that of TGACGCGACGTA, 0.222.
Regarding TGACAGTCAGTA, the binding signal (log2 normalized fluorescence) is 0.207.
As for TGACTTAGAGTA, the binding signal (log2 normalized fluorescence) amounted to 0.00649.
On to TGAGTCTGAGTA, for which the binding signal (log2 normalized fluorescence) is -0.223.
In the case of TGAAACGACGTA it was 0.186.
In the case of TGACCGTGAGTA it was 0.028; in that of TGATAAGAGGTA, 0.00604; in that of TGAACGGGCGTA, -0.108.
On to TGATAACATGTA, for which the binding signal (log2 normalized fluorescence) was 0.446.
As for TGACTGCCCGTA, the binding signal (log2 normalized fluorescence) amounted to 0.0477.
On to TGAATGTCGGTA, for which the binding signal (log2 normalized fluorescence) amounted to 0.302.
Regarding TGATACAAAGTA, the binding signal (log2 normalized fluorescence) was -0.024.
Turning to TGACGAACCGTA, the binding signal (log2 normalized fluorescence) was 0.159.
Take TGATTACCCGTA: the binding signal (log2 normalized fluorescence) was determined as 0.0842.
For TGAACTACAGTA, the binding signal (log2 normalized fluorescence) came to 0.0813.
To TCCGACGTGGTA belongs 0.53; to TGAGGGTTGGTA, 0.0373.
TGCCACGTAGGA: the binding signal (log2 normalized fluorescence) was found to be 0.344.
In the case of TGATCGCGAGTA it was 0.326; in that of TTACACGTGGTC, 0.679; in that of TGATCCGTCGTA, -0.107.
To TGAGAGTGAGTA belongs -0.192; to TGACTAGTTGTA, -0.0321; to TGAGTGCCTGTA, 0.232.
In the case of TGAGTACAGGTA it was 0.00262; in that of TGACTTAGTGTA, -0.0646; in that of TGACATACCGTA, 0.177.
With TGATATAAAGTA, the binding signal (log2 normalized fluorescence) is -0.32.
In the case of TGAGATCTGGTA it was -0.301; in that of TGACCCTTGGTA, 0.0687.
Regarding TGAGTCACCGTA, the binding signal (log2 normalized fluorescence) amounted to 0.151.
Consider TGACATTCCGTA, for which the binding signal (log2 normalized fluorescence) amounted to 0.27.
In the case of TGATCCTATGTA it was -0.00579; in that of TGATGCTCTGTA, 0.0578.
Turning to TGAGGGGGTGTA, the binding signal (log2 normalized fluorescence) was 0.809.
For TGAGATGTGGTA, the binding signal (log2 normalized fluorescence) is 0.149.
In the case of TGATGGATGGTA it was 0.171.
As to TGACCAGTAGTA, the binding signal (log2 normalized fluorescence) worked out at 0.149.
For TGAGGGCGCGTA, the binding signal (log2 normalized fluorescence) was determined as 0.131.
In the case of TGACCGTGCGTA it was 0.245; in that of TGACACACGGTC, 0.354; in that of TGAATCGATGTA, 0.045.
TGAAACCCTGTA: the binding signal (log2 normalized fluorescence) was found to be 0.16.
Regarding TGACCTTGAGTA, the binding signal (log2 normalized fluorescence) stood at 0.204.
In the case of AAGCACGTGGTA it was 0.835.
To TGACTAATCGTA belongs -0.127.
Take TGACTGACAGTA: the binding signal (log2 normalized fluorescence) was -0.0154.
Take GAACCCACTGCT: the binding signal (log2 normalized fluorescence) was determined as 0.408.
In the case of TGAACATGCGTA it was 0.323; in that of TGCTTCATGGTT, 0.301.
To TGATCGCGTGTA belongs 0.492; to TGAGATTAGGTA, -0.166; to TGATAAAGGGTA, -0.000515.
Consider TGAATGCACGTA, for which the binding signal (log2 normalized fluorescence) turned out to be 0.413.
On to TGAAAGAGCGTA, for which the binding signal (log2 normalized fluorescence) is -0.0273.
To TGATGGGCAGTA belongs 0.0215.
To TTCGACGTGGTA belongs 0.34; to TGAACCCCGGTA, 0.218.
In the case of GGACACGTAGTA it was 0.369; in that of TGAAGGGACGTA, -0.148; in that of TGACACGTAGCA, 0.484.
For TGATCGTTAGTA, the binding signal (log2 normalized fluorescence) was -0.117.
In the case of TGAACCGGCGTA it was 0.0721; in that of TGACACGTCCTA, 0.405; in that of TGAGTGGCCGTA, 0.273.
On to TGAGAGCTTGTA, for which the binding signal (log2 normalized fluorescence) is -0.0443.
TGACACGGTGTA: the binding signal (log2 normalized fluorescence) stood at 0.228.
As to TGATGTTTGGTA, the binding signal (log2 normalized fluorescence) came to 0.0673.
Regarding TAGAGTTTACCG, the binding signal (log2 normalized fluorescence) was -0.222.
Consider TGACGATACGTA, for which the binding signal (log2 normalized fluorescence) stood at 0.106.
To TGACAAATGGTA belongs 0.28; to AGACCCGTGGTA, 0.277.
On to TGAACAACGGTA, for which the binding signal (log2 normalized fluorescence) amounted to 0.204.
In the case of TGACCTGCCGTA it was 0.223; in that of TGAATTCGGGTA, -0.0384; in that of TTACATGTGGTA, 0.625.
To TGAATACGAGTA belongs 0.238; to TGAATAAAAGTA, -0.065; to TGATACCCGGTA, 0.0826.
To TGAGATCATGTA belongs 0.165; to CGACAGCCGGTT, -0.0407; to TGATACGTGTAA, 0.291.
As for TGAATGCCGGTA, the binding signal (log2 normalized fluorescence) came to 0.0509.
To TGATTCGCAGTA belongs -0.0563; to TGACACGCAGTA, 0.458; to TGAAGGCAAGTA, -0.0158.
As for TGATTTCGGGTA, the binding signal (log2 normalized fluorescence) is -0.124.
Regarding TGATGAATTGTA, the binding signal (log2 normalized fluorescence) is -0.0305.
To TGACATGTGGCC belongs 0.558; to TGATTGATCGTA, -0.157.
To TGAAAGACGGTA belongs -0.00169; to TGAAATGCCGTA, 0.0989; to TGAAAGTCCGTA, -0.0864.
To TGACGATGTGTA belongs 0.226.
With TGACACGCCATA, the binding signal (log2 normalized fluorescence) worked out at 0.441.
TGAGTCAAAGTA: the binding signal (log2 normalized fluorescence) is -0.0966.
To AGACACGTGGTA belongs 0.798.
For TGATCCCTAGTA, the binding signal (log2 normalized fluorescence) was -0.123.
In the case of TGAACAGGAGTA, the binding signal (log2 normalized fluorescence) was 0.198.
In the case of TGAGCAGGAGTA it was 0.118.
Take TGAGCGCTTGTA: the binding signal (log2 normalized fluorescence) was determined as 0.254.
To TGAACTAATGTA belongs -0.00423; to TGACGTCGGGTA, -0.243; to TGAGGAGTCGTA, -0.0537.
To TGATACAGTGTA belongs 0.0568; to TGATTGCTAGTA, -0.0538.
In the case of TGAGTGTCCGTA, the binding signal (log2 normalized fluorescence) worked out at 0.261.
To TGATAGCAAGTA belongs -0.0344.
To TGACGCTACGTA belongs 0.0734.
To AAATACGTGGTA belongs 0.556; to TGAGGCATAGTA, -0.0779.
For TGATCTCAAGTA, the binding signal (log2 normalized fluorescence) was 0.0448.
TGATCCATTGTA: the binding signal (log2 normalized fluorescence) worked out at 0.0162.
In the case of TGACGACGAGTA it was 0.082.
In the case of TGAGCAATCGTA it was 0.0406; in that of TGAGACGAGGTA, 0.0194.
In the case of TGAGACCCGGTA it was -0.0338; in that of TGACCGGATGTA, 0.246.
As for TGAAGTAGAGTA, the binding signal (log2 normalized fluorescence) is -0.0982.
To TGAATTTAAGTA belongs -0.0297; to TGAGCCGAGGTA, -0.0395.
For the sequence TGAAAAGAGGTA, the binding signal (log2 normalized fluorescence) was -0.00138.
In the case of TGATAGAGAGTA it was -0.00961; in that of TGAAGGCCGGTA, -0.224; in that of TGAATGACGGTA, 0.101.
Take CAGCACGTGGTA: the binding signal (log2 normalized fluorescence) came to 0.793.
To TGATACGTGGGA belongs 0.327; to TGATGCCTTGTA, 0.172.
To TGACCCTGGGTA belongs 0.048; to TGACGCACGGTA, 0.383; to TGACAACGTGTA, 0.432.
On to TGACAGCGAGTA, for which the binding signal (log2 normalized fluorescence) is 0.152.
To TGAACCAGAGTA belongs -0.211; to TGAAACCGAGTA, 0.148.
To TGACCCCCAGTA belongs 0.19; to TGATATCGGGTA, -0.158.
Take TGGCACGTCGGA: the binding signal (log2 normalized fluorescence) is 0.155.
Regarding TGACAAGTAGTC, the binding signal (log2 normalized fluorescence) is -0.0371.
Consider TGAATCGGAGTA, for which the binding signal (log2 normalized fluorescence) is -0.207.
In the case of TGACACGTTCCA it was 0.522.
In the case of TGGCACCTGGTA it was 0.448; in that of TGAACGGAAGTA, 0.0165.
TGATCCGATGTA: the binding signal (log2 normalized fluorescence) was found to be 0.0271.
Turning to TGAAGGGAAGTA, the binding signal (log2 normalized fluorescence) was -0.154.
Regarding TGAAGAAGTGTA, the binding signal (log2 normalized fluorescence) worked out at 0.104.
